Experimental data taken from PubChem BioAssay AID1476 (National Center for Advancing Translational Sciences (NCATS), 2009).
Among all 200,000 compounds or so, about 4,500 (2.2%) were called active. Inconclusive results, whose numbers are uncertain, are shown with a selection of clear calls. Calls come from the whole dose curve; as a rule, active = well fitted inhibition curve with a large enough effect; inconclusive = small, poorly fitted or top-dose-only effect, or effect the other way; inactive = flat fitted curve, though single readings scatter. Potencies beside an inconclusive call are fits to weak or partial responses and may not hold up.

molecular target: Cruzipain (Trypanosoma cruzi) (UniProt P25779); experiment: qHTS Assay for Promiscuous and Specific Inhibitors of Cruzain (without detergent); details: purified cruzain, Z-FR-AMC fluorescence, no detergent; note: nearly all actives have a fitted effect of over 40% in size;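 for max response, negative = inhibition: plate controls were enzyme without inhibitor for no effect and buffer without enzyme for full effect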
Chain of UniProt P25779 (P25779 whole entry, looked up): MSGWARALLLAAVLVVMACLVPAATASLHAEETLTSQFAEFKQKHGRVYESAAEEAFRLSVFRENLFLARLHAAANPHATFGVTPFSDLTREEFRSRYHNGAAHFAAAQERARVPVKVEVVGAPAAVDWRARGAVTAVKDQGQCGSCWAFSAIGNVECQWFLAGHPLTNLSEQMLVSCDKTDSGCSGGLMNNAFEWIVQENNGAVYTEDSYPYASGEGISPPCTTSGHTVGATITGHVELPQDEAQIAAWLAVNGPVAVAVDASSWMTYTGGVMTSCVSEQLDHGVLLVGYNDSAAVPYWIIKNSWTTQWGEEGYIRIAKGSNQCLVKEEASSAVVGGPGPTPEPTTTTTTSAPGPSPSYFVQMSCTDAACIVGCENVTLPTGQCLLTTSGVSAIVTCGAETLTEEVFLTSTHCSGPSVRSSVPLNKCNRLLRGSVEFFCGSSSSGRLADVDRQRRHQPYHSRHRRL
Summary of the method: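 Detergent-free condition (0.00005% Triton X-100) in acetate buffer pH 5.5 with DTT. 1.5 nM enzyme and compound were pre-mixed 15 min, then 2 uM Z-FR-AMC substrate added; reaction progress from fluorescence change between first and third reads (60 s).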
Potency is the fitted concentration of half-maximal effect; tags give direction and shape of the fitted curve.

Row | SMILES | max response, negative = inhibition | Potency
1 | CCCC(C)NC(=O)c1cc(C(=O)OC)cc([N+](=O)[O-])c1 (configuration not stated) | inactive: 9.2% | 
2 | CC1C/C(=C/c2cccn2C)C(=O)/C(=C/c2cccn2C)C1 (configuration not stated) |  | inconclusive: 39.8 µM [activator, single point]
3 | CCN(CC)CCNC(=O)Nc1ccc2c(c1)N(Cc1ccccc1)C(=O)c1ccccc1S2 | inactive: -2.45% | 
4 | O=C(O)CC1=C(O)C(=O)N(c2ccccc2)C1c1ccccc1 (configuration not stated) |  | inconclusive: 20 µM [inhibitor, partial curve, poor fit]
5 | CCN(CC)c1sc(S(=O)(=O)c2ccccc2)nc1S(=O)(=O)c1ccc(C)cc1 | inactive: 12.3% | 
6 | CCOC(=O)N1CCN(C(=O)CSCC(=O)Nc2nc(-c3ccccc3)cs2)CC1 |  | inconclusive: 39.8 µM [activator, single point]
7 | O=C(CSc1nc2c([nH]c3ccccc32)c(=O)n1-c1ccccc1)Nc1ccc2c(c1)OCCO2 |  | active: 25.1 µM
8 | O=C(Nc1cccc(-c2cn3ccccc3n2)c1)c1cc2ccccc2oc1=O |  | inconclusive: 25.1 µM [inhibitor, single point]
9 | CCCCCSc1nc2c(cnn2-c2ccccc2)c(=O)[nH]1 |  | inconclusive: 2 µM [inhibitor, full curve]
10 | COc1ccc(C2=Nc3cccc4cccc(c34)N2)cc1 |  | active: 3.16 µM
11 | COc1ccc(N2CCN(c3oc(-c4ccc(COc5cccc(C)c5)o4)nc3C#N)CC2)cc1 |  | inconclusive: 6.31 µM [inhibitor, single point]
12 | COc1cc(OC)c2c(-c3cccc(-c4ccc(OC)c(F)c4)c3)cc(=O)oc2c1 |  | active: 31.6 µM
13 | COc1ccc(-n2c(C)cc(C(=O)Cn3nc(C(=O)O)c4ccccc4c3=O)c2C)cc1 |  | inconclusive: 20 µM [inhibitor, partial curve, poor fit]
14 | COc1ccc(C(=O)Nn2c(SCC(=O)c3ccccc3)nc3ccccc3c2=O)cc1 |  | inconclusive: 39.8 µM [inhibitor, single point]
15 | Cc1oc(-c2ccccc2F)nc1CS(=O)(=O)CC(=O)NCCc1ccc(Cl)cc1 |  | inconclusive: 25.1 µM [activator, single point]
16 | O=C(c1ccco1)n1nc(-c2ccccc2)nc1SCc1ccccc1 |  | inconclusive: 39.8 µM [inhibitor, single point]
17 | COc1cc(Cl)ccc1NC(=O)COc1ccccc1C(=O)N1CCN(c2ccc(O)cc2)CC1 |  | inconclusive: 31.6 µM [inhibitor, single point]
18 | COc1ccccc1CO/N=C/NC(=O)c1c(OC)ccnc1Oc1ccc(F)cc1 |  | inconclusive: 31.6 µM [activator, single point]
19 | N#C/C(=N\Nc1cccc2ccccc12)c1nnc2n1CCCCC2 |  | inconclusive: 39.8 µM [activator, single point]
20 | CCC(=O)Nc1ccc2c(c1)C(=O)N(C1CCCCC1)C2=O |  | inconclusive: 39.8 µM [inhibitor, single point]
21 | C/C=C(/C)C(=O)OC1C(OC(C)=O)[C@@]2(CO)C(O)C[C@@]3(C)C(=CCC4[C@@]5(C)CCC(OC6OC(C(=O)O)[C@@H](O[C@@H]7OC(CO)C(O)C(O)C7O)C(O)[C@H]6O[C@@H]6OC(CO)C(O)C(O)C6O)[C@](C)(CO)C5CC[C@@]43C)C2CC1(C)C (some centres not stated) |  | inconclusive: 39.8 µM [inhibitor, single point]

Row | SMILES | max response, negative = inhibition | Potency
22 | Cc1cc(C(=O)Cn2nnc(-c3ccc(Cl)cc3)n2)c(C)n1-c1ccccc1 |  | inconclusive: 39.8 µM [inhibitor, single point]
23 | Cc1ccc(-c2noc(-c3ccccc3NC(=O)C3CC(=O)N(c4ccccc4C)C3)n2)cc1 (configuration not stated) | inactive: 5.04% | 
24 | Cc1ccc(Cn2c(CN3CCC(C(=O)NCCc4ccccc4)CC3)cc3ccccc32)cc1 | inactive: 4.37% | 
25 | Cc1ccc(SCC2(O)CCN(C(=O)c3ccc(Cl)cc3)CC2)cc1 |  | inconclusive: 20 µM [activator, single point]
26 | CC(C)Sc1ncc(Cl)c(C(=O)N(Cc2ccc(N(C)C)cc2)C2CCS(=O)(=O)C2)n1 (configuration not stated) |  | inconclusive: 39.8 µM [activator, single point]
27 | N#Cc1ccc(C(=O)Nc2ccc3c(c2)N(C2CCCC2)C(=O)c2ccccc2S3)cc1 |  | inconclusive: 39.8 µM [inhibitor, single point]
28 | O=C(Nc1ccc2cn[nH]c2c1)c1ccc(Cl)c(S(=O)(=O)N2CCOCC2)c1 |  | inconclusive: 39.8 µM [inhibitor, single point]
29 | CCN(CC)C(=O)c1sc2c(c1C)c(=O)n(-c1ccc(OC)cc1OC)c(=O)n2CC(=O)c1ccc(Cl)cc1 |  | inconclusive: 10 µM [activator, partial curve]
30 | COc1ccc2[nH]cc(CCNc3ccnc(-c4ccc(N(C)C)cc4)n3)c2c1 |  | inconclusive: 39.8 µM [inhibitor, single point]
31 | CNc1nc(-c2ccccc2)nc(-c2ccccc2)c1C#N |  | active: 7.94 µM
32 | Cc1ccc(NC(=S)NC(=O)c2ccc(-c3ccc(Cl)cc3)o2)c(O)c1 | inactive: -25.6% | 
33 | CC(C)c1cccc2c([Si](C)(C)C)c3c(nc12)-c1cccc(=O)n1C3 |  | inconclusive: 31.6 µM [activator, single point]
34 | COc1ccc(OCC(=O)NCc2ccc3c(c2)CCN3C(=O)c2ccc(F)cc2)cc1 | inactive: 14% | 
35 | CCN1C(=O)/C(=C/c2nc3ccccc3c(=O)n2-c2ccc(C)cc2)c2ccccc21 |  | inconclusive: 31.6 µM [activator, single point]
36 | CC(=O)N1c2ccc(S(=O)(=O)NCC3CCC(C(=O)Nc4cc(C)ccc4C)CC3)cc2CC1C (configuration not stated) |  | inconclusive: 7.94 µM [activator, partial curve]
37 | CC(=O)Nc1ccc2nc(SCCOc3cc(C)cc(C)c3)sc2c1 |  | inconclusive: 31.6 µM [activator, single point]
38 | Clc1ccc(-c2ccc(/C=N/Nc3nncc(-c4ccccc4)n3)o2)cc1 |  | inconclusive: 25.1 µM [inhibitor, single point]
39 | Cc1cc2cc(CN(Cc3cccs3)C(c3nnnn3C(C)(C)C)C(C)C)c3nnnn3c2cc1C (configuration not stated) |  | active: 7.94 µM
40 | CCc1ccc(N2C(=O)c3sc4nnc(-c5ccccc5)c(=O)n4c3C2=O)cc1 |  | inconclusive: 25.1 µM [inhibitor, single point]
41 | NC1=N[C@H](c2ccc(Cl)cc2)N(c2ccc(S(N)(=O)=O)cc2)C(N)=N1 | inactive: 1.94% | 
42 | CSc1ccc(/C=c2\s/c(=C\C(=O)C(C)(C)C)n(CC(=O)NCCC3=CCCCC3)c2=O)cc1 |  | active: 3.16 µM

Row | SMILES | max response, negative = inhibition | Potency
43 | Cc1ccc(C2=NC3(CCCC3)N=C2SCC(=O)Nc2ccc3c(c2)OCCO3)cc1 | inactive: 6.17% | 
44 | CCN(Cc1ccccc1)S(=O)(=O)c1cc(C(=O)Nc2cc(Cl)cc(Cl)c2)ccc1F |  | inconclusive: 39.8 µM [inhibitor, single point]
45 | CN(Cc1ccccc1)Cc1nc2c(c(=O)n(C)c(=O)n2C)n1Cc1ccccc1Cl |  | inconclusive: 39.8 µM [activator, single point]
46 | CCN(CC)C(=O)C1CCN(S(=O)(=O)c2ccc3oc4ccccc4c3c2)CC1 |  | inconclusive: 39.8 µM [activator, single point]
47 | CN1CCc2nc3sc(C(=O)C45CC6CC(CC(C6)C4)C5)c(N)c3cc2C1 |  | active: 12.6 µM
48 | Cc1cccc(C(=O)NC(=S)NNC(=O)c2ccccc2Cl)c1 | inactive: 2.01% | 
49 | COC(=O)c1ccc(OCC2c3cc(OC)c(OC)cc3CCN2C(=O)Cc2ccccc2)cc1 (configuration not stated) |  | inconclusive: 25.1 µM [activator, single point]
50 | Cc1cc(C)c(S(=O)(=O)Nc2ccc(-c3ccc(N4CCCCCC4)nn3)cc2)c(C)c1 |  | inconclusive: 39.8 µM [inhibitor, single point]
51 | CCOc1cc(CNC(=O)NC2COc3ccc(OC)cc3C2)cc(OCC)c1OCC (configuration not stated) |  | inconclusive: 39.8 µM [activator, single point]
52 | COC(=O)c1ccccc1NC(=O)Nc1nnc(N2CCC(C)CC2)s1 |  | inconclusive: 39.8 µM [activator, single point]
53 | CCCCOc1ccc(C(=O)NCC2(c3ccc(OC)cc3)CCOCC2)cc1 |  | inconclusive: 39.8 µM [activator, single point]
54 | Cn1c(C(=O)Nc2ccc3c(c2)OCO3)cc2c(=O)n(C)c3ccccc3c21 |  | inconclusive: 31.6 µM [activator, single point]
55 | O=C(c1ccccc1)c1ccc2nc(-c3ccc(NC(=O)c4ccccc4F)cc3)[nH]c2c1 |  | inconclusive: 25.1 µM [inhibitor, single point]
56 | CCCCC(=O)Nc1ccc(C(=O)Nc2ccc(S(=O)(=O)Nc3nccc(C)n3)cc2)cc1 |  | inconclusive: 20 µM [inhibitor, single point]
57 | O=C(Oc1ccc(S(=O)(=O)F)cc1F)c1ccccc1Cl | inactive: 7.66% | 
58 | O=C(COc1ccc2ccccc2c1)NCCNC(=O)COc1ccc2ccccc2c1 |  | active: 25.1 µM
59 | CCn1c(SCC(=O)Nc2oc(-c3ccccc3)c(-c3ccccc3)c2C#N)nnc1-c1ccco1 |  | inconclusive: 39.8 µM [inhibitor, single point]
60 | O=C(Cn1c(=O)n(-c2ccccc2Cl)c(=O)c2sc3ccccc3c21)NC1CCCCC1 | inactive: 15.1% | 
61 | COc1ccc(C)cc1S(=O)(=O)N1CCC(C(=O)NCCC2=CCCCC2)CC1 |  | inconclusive: 39.8 µM [activator, single point]
62 | CCOC(=O)N1CCN(C(=O)CN(Cc2ccccc2)S(=O)(=O)c2ccc(OC)c(Cl)c2)CC1 |  | inconclusive: 25.1 µM [activator, partial curve]
